# Source: the supplement of paper PMC11417369
# ± gives the standard deviation of the averaged measurements. Some of the results follow.
# System: PfAP2-I AP2 domain 3 (GST-tagged)
# Assay: gcPBM binding intensity (ln(normalized median fluorescence intensity)); higher = stronger DNA binding
# Procedure, shortened: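 After 1 h on an Agilent 4 × 180k array of primer-extended double-stranded 36-bp intergenic genomic probes and negative controls, bound GST-tagged P. falciparum DNA-binding domains were detected with Alexa488 anti-GST antibody and scanned at 488 nm. The domains had been expressed in E. coli, and binding took place in 1× PBS with 1% milk, 0.2 mg/ml BSA, 0.5% salmon testes DNA and 0.03% Triton X-100. Binding intensity is the highest Masliner-normalised natural-log median intensity across replicate spots of either probe orientation.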
row,Sequence,gcPBM binding intensity (ln)
1,TAACATATAATATTCACACACATATATATATTATAT [CACACA_site988],7.83 ± 0.44
2,TATTATTATCTTACCACACACAATGTACGAAAAGAT [CACACA_site352],8.19 ± 0.44
3,GGAAAAACCATTCGCACACACACATAATATATAATA [CACACA_site1424],8.32 ± 0.43
4,ATTAATATATATGGATGTACTTATGTATGTATGCAT [XGTACX_site2263],7.88 ± 0.6
5,ATAATAATATATATTACACACGCATCGTTCATTTAT [CACACA_site8752],8.03 ± 0.65
6,CATGTATAATATAATACACACTATATAATATACACC [CACACA_site5267],8.16 ± 0.22
7,ATGGCCATAATATAGACACACATATATAAATATATA [CACACA_site2230],7.39 ± 0.53
8,CGATATGTTCAATATTGTACTATTTATAATAATATG [XGTACX_site3051],7.67 ± 0.35
9,TATTGACAAAATAGCTGTACAAATTAAAAGAAATAA [XGTACX_site4415],7.75 ± 0.54
10,TCTTACTAATATCGCACACACATATGTAGACGGGAT [CACACA_site87],8.73 ± 0.22
11,TATTTATATGGACACACACACATATAAATAAATAAA [CACACA_site6346],8.03 ± 0.55
12,TTTAATTGATAATGAAGACAATTATATGCATCCAAA [TGCATGCA_negctrl_site138],7.9 ± 0.28
13,TTATTGTCTTCTCATATACACACTTTTATGACTATC [CACACA_site3142],8.07 ± 0.74
14,CTTAAAAAAAAAAAATGTACACATAAAAAAAATACA [XGTACX_site6700],8.145 ± 0.007
15,TAAATAAGGAAGGAAACACACATTAAAAAATAAATA [CACACA_site618],7.83 ± 0.5
16,TTTTTAAATTATTTGAAAAAAAGAAAATTATAAACA [CACACA_negctrl_site1599],7.49 ± 0.41
17,AACAGAAGCACATACACACACTCAAAAAAAAAAAAA [CACACA_site5652],8.24 ± 0.17
18,ATTTTATTCTAAAAAGGTACACATATTATTTTATGA [XGTACX_site7233],7.55 ± 0.35
19,TTAAAGCTTACATATACACACATACATAAATTCATA [CACACA_site8785],7.72 ± 0.47
20,TATGATGATATAAAAACACACACATATAATATAATA [CACACA_site8321],7.87 ± 0.63
21,GTAAAATAAAATATATGTACATATGTATATGAGGTA [XGTACX_site3743],8.15 ± 0.6
22,GACATATTCCCCCCCACACACACACCCACATACATA [CACACA_site2302],10.8 ± 0.26

row,Sequence,gcPBM binding intensity (ln)
1,TTTTGATCATCCAAAATATCTTCATCTGAACTACTA [CACACA_negctrl_site939],7.4 ± 0.68
2,ATTTAGAAATATATTTGTACATATATATATATATAT [XGTACX_site7129],9.47 ± 0.35
3,ATTCAAACAAATTAATGTACATATATATAAGATATT [XGTACX_site1531],7.75 ± 0.43
4,TACCCTGATCGGCATGCATGTAAGTAACAAATATAT [TGCATGCA_site153],7.85 ± 0.67
5,TGTTGATAAAAAATAAAAAATAAAAAAATAAAATAT [TGCATGCA_negctrl_site559],7.67 ± 0.74
6,CTACATATTAATATATGTACATATTAATATATCTAA [XGTACX_site7118],7.65 ± 0.33
7,ATATATACATATAAATGTACATAATTATTATGCACA [XGTACX_site1261],11.3 ± 0.82
8,ATAAAAAGAAAAAAGGGTACACTATACTATTTAAAA [XGTACX_site4467],7.85 ± 0.45
9,TATAAAGCATATTAAAGTACTTATTTTCCTTTTTCT [XGTACX_site8892],7.54 ± 0.61
10,TTTTATTTTATTCTTAAATAAGTATTATAAAATATG [XGTACX_negctrl_site201],7.49 ± 0.39
11,TATATATATATGTGCACACATAATAAAAAAAAAAAT [CACACA_site3831],10.3 ± 0.11
12,TTAATGTTGTATGGTTGTACAATAAGCCCCTTTTAA [XGTACX_site2484],8.02 ± 0.4
13,TTATTTGAACAATATGCACACATTTTATTTATTTTA [CACACA_site3420],8.94 ± 0.2
14,AACTTACTTGGACATACACACATATAGATTTATATA [CACACA_site7412],8.04 ± 0.5
15,GTACAAATGTTGTGTATATATACACACATACATATA [XGTACX_negctrl_site276],8.02 ± 0.58
16,ATGTAGTTTTATCAGTGTACAAGTATTTTATCACAT [XGTACX_site8958],7.93 ± 0.58
17,AAAATATATATATATATATATATATGTATACTCCTA [XGTACX_negctrl_site312],8.22 ± 0.12
18,TTATTTATAAATATTAATTTTTTTTTTTTTTTTTTT [XGTACX_negctrl_site105],8.73 ± 0.12
19,TTTTATGTTTCAAAATGTACATTAAAATATACCATA [XGTACX_site1713],7.74 ± 0.5
20,ATATATATATTTTTTAAACACACACCGAAATATTTG [CACACA_site8937],8.95 ± 0.57
21,TTAATTAAAACGAATACACACATAAATATATAAAAG [CACACA_site1254],7.77 ± 0.61
22,TTTTATTATTGAATACTAGTATATATAATATGAAGA [CACACA_negctrl_site910],7.8 ± 0.35

row,Sequence,gcPBM binding intensity (ln)
1,CATATGCATACTATACGTACATATGTATATAATATA [XGTACX_site7738],8.03 ± 0.42
2,AATATAATATAATGCACACATAAAAAAAAAATCAAA [CACACA_site122],11.2 ± 1
3,TTTTTATATAACCTTCTTAATTCTTTTTTTTTTTTT [XGTACX_negctrl_site591],7.43 ± 0.61
4,AAAACAAAATTATGAACATGCAAGGTAAAATTGTAA [TGCATGCA_site775],8.49 ± 0.74
5,CACAAACAAAAACACACACACACACCGACAAAAATG [CACACA_site5362],7.99 ± 0.33
6,TTCTTTCTAGAATATTGTACATATATTGTTATTATA [XGTACX_site8425],7.63 ± 0.38
7,AGAAAGAAGATATATACACACAAAAAAAGATATATA [CACACA_site6779],7.71 ± 0.6
8,TATAAATATTTATACACACACACATTAATACCTATA [CACACA_site7604],8.02 ± 0.47
9,AAAAGAAGATAATACAGTACAGAATAATATAAAATA [XGTACX_site5962],7.75 ± 0.73
10,TTTTGTTAAAAAGATGTATATTTTATAAATATTTAT [CACACA_negctrl_site101],7.51 ± 0.51
11,AAATAAAATAAATAATATAAAATAATATATAAAAAA [CACACA_negctrl_site1777],7.37 ± 0.47
12,AAAAAAAAATTGTGTACACATAATTATATCATATGT [CACACA_site4500],7.96 ± 0.26
13,ATGGATAATAAGTTTACACACAAAAAAAAAGAAAAA [CACACA_site861],7.67 ± 0.47
14,ATAAGAATCATATTTAAACACACATACATATATATA [CACACA_site9106],8.19 ± 0.79
15,AAAAAAAAAAAATACACACACATAAAAAAAAAAATA [CACACA_site1858],7.71 ± 0.22
16,ATTATATTAACAATGACATGCAATTCTTAATCCTTA [TGCATGCA_site648],7.74 ± 0.34
17,ATTAAATAAACCATTACACACTTTTATGTTTTGAAA [CACACA_site1143],7.83 ± 0.52
18,TTTTTATTGGTGAATACACACGTATATATATATTAT [CACACA_site8756],8.03 ± 0.69
19,TAGTTACCTTAATATTGTACTTTTCTTTCATATATG [XGTACX_site1309],7.75 ± 0.53
20,CACTAAATAAGGAAAGTGCATAAAATAAAGGTTATA [GTGCAC_site9793],10.4 ± 0.26
21,GTGTCAAATTTTATAACACACAAAAGGTTATATAAG [CACACA_site7839],7.79 ± 0.47
22,ATAGTTTCTGGTAGCTGTACGAGTCGTAGAGTGCAG [XGTACX_site2022],8.29 ± 0.36

row,Sequence,gcPBM binding intensity (ln)
1,ATTTAAAAAATATATTGTACATATTTTATTATGTTT [XGTACX_site2984],7.58 ± 0.28
2,TACAGTTTTTCTTTGAATTTATCAAGTTTTTTTCCC [XGTACX_negctrl_site60],7.49 ± 0.68
3,CATACATATAAACACACACACACACCCACCCACAAA [CACACA_site8059],8.56 ± 0.71
4,TAGTTAGCCCAAGGGGTGCTAATTACTATCTAAATA,9.82 ± 0.35
5,TATAGAAGCAAATTATGTACACAATATGGAAAATCA [XGTACX_site3345],8.11 ± 0.49
6,AACACCAATTCATATGCACACACATCTGCATATTAT [CACACA_site8523],9.15 ± 0.29
7,TTTATAAATATTCTCACACACTTTTTATTTTAACAA [CACACA_site6454],7.7 ± 0.59
8,GTCGAGGATATATAAAGTACATATATATATATGATA [XGTACX_site1128],7.87 ± 0.38
9,TAATGTATCTAAAATTGTACAAATATAAATATAAAT [XGTACX_site2764],7.79 ± 0.54
10,ATGAATAAATAAGACACACACGAAAATAAGTAAAAA [CACACA_site4216],8.13 ± 0.81
11,TATTTTGATTATTCAGTGTATAAATATATATATATA [CACACA_negctrl_site545],8.95 ± 0.23
12,TACAAATATATATGCACACACATATACATACAGATA [CACACA_site5238],9.32 ± 0.35
13,CATATATACGCATACACACACACACCCACACCCACA [CACACA_site1725],8.21 ± 0.49
14,TATTTATACCTATACACACACACACGGATATTTATA [CACACA_site7123],7.87 ± 0.57
15,ATATGCTTATTGTAAAGTACATTATTATTTTTCCTA [XGTACX_site5479],7.62 ± 0.53
16,AATTAACAAAAACACACACACACACCGACAAAAAAA [CACACA_site4444],8.13 ± 0.33
17,GATAAAATCACTGGTGCATGTAGATATATAATATTA [TGCATGCA_site589],9.12 ± 0.085
18,AAAAAAAAACAAAAAAGTACAAAATAAAAATACGTT [XGTACX_site4566],7.76 ± 0.66
19,CTCTTCATATATAATTGTACACACAAAAACGACATT [XGTACX_site4287],8.42 ± 0.21
20,AATAAATATATACATTGTACATATATAATATATATA [XGTACX_site1458],7.94 ± 0.37
21,TAAATTATAATATGCACACAAAATGTTATATTAAAA [CACACA_site376],8.62 ± 0.23
22,TATATATATTTTGGCTGTACATCAGCGTATATTTTT [XGTACX_site3233],7.67 ± 0.54
